Source: PubChem BioAssay AID1963576 (National Center for Advancing Translational Sciences (NCATS), 2024)
The campaign covered roughly 46,000 compounds. About 60 (0.1%) were called active. Another 3% or so got no clear call; they are omitted. Calls come from the whole dose curve; as a rule, active = well fitted inhibition curve with a large enough effect; inconclusive = small, poorly fitted or top-dose-only effect; inactive = no such curve, though single readings can be large or run the other way. The list shows a part of the results.

Experiment: Primary qHTS assay for Inhibitors of ovarian cancer metastasis using an organotypic tumor microenvironment (TME) model.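 For activity change, negative = inhibition: plate controls were DMSO wells for no effect and tomatine positive control wells for full effect.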 Note: nearly all actives have a fitted effect of over 65% in size.
Conditions: SKOV3ip1-GFP adhesion/invasion on 3D omental model, fluorescence; series mostly up to 45.8 µM; activity change, negative = inhibition: at the top concentration
Summary of the method: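 Primary human omental fibroblast/mesothelial 3D culture pre-formed 48 h. SKOV3ip1-GFP cells added with compounds (0.36-46 umol/L), incubated 2 h RT/16 h 37 C, fixed; GFP cells quantified at 488/509 nm.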

Activity change, negative = inhibition, inactive:
Cc1ccc(-n2nc(CO)c(C(=O)NCCCc3ccccc3)n2)cc1 -1.48%
CCc1ccccc1Nc1nc2cc(Cl)c(Cl)cc2nc1-n1nc(C)cc1C -3.68%
CCOc1ccc(C(=O)c2cnc3ccc(Cl)cc3c2S(=O)(=O)c2ccc(C)cc2)cc1 7.2%
COc1cccc(Cn2c(NCc3ccc(C)cc3)nc3c2c(=O)n(C)c(=O)n3C)c1 2.25%
CCOc1ccc(CNC(=O)C2CCCN(S(=O)(=O)N(C)c3ccc(F)cc3)C2)cc1OC (stereo not given) 15.2%
Cc1ccc(-n2ncc3c(Nc4ccccc4C)ncnc32)cc1 12.5%
CC(=O)Nc1ccc(NS(=O)(=O)c2c(C)nc3sccn3c2=O)cc1 -1.06%
O=C(NC1CC1)c1cccc(-c2ccc3c(NC(=O)C4CC4)n[nH]c3c2)c1 -25.3%
Cc1nn(-c2ccc3nnc(C)n3n2)c(C)c1CCC(=O)Nc1ccc(OC(F)(F)F)cc1 1.53%
CC(=O)c1ccc(NC(=O)c2ccc(-c3nc(COc4ccc(C)cc4)c(C)o3)cc2)cc1 -0.627%
CCC(=O)N1CCc2cc(S(=O)(=O)NC(CC(C)C)C(=O)NCc3ccc(F)cc3)ccc21 (stereo not given) -4.63%
COC(=O)c1cc(-c2ccc(OC)c(OC)c2)c2c(=O)[nH]c(=O)n(C)c2n1 0.159%
Cc1ccc(S(=O)(=O)c2nc(-c3ccco3)oc2SCC(=O)Nc2ccc(F)cc2)cc1 4.52%
CC1Cc2cc(S(=O)(=O)CCC(=O)Nc3ccc(F)c(Cl)c3)ccc2N1C(=O)C1CC1 (stereo not given) -3.29%
Cc1cccc(C)c1NC(=O)Cn1c(=O)n(Cc2ccco2)c(=O)c2ccc(C(=O)NC3CCCC3)cc21 -6.93%
Cc1ccc(NC(=O)Cn2c(=O)n(Cc3nc(C)no3)c(=O)c3cc4c(cc32)OCO4)c(Cl)c1 -10%
COc1ccc(S(=O)(=O)NCC(c2ccco2)N2CCN(c3ccc(F)cc3)CC2)cc1C (stereo not given) -1.81%
COc1ccc(NC(=O)CCc2c(C)nc3nc(CNC(=O)OC(C)(C)C)nn3c2C)cc1OC 1.47%
COc1ccc(CC2C(=O)Nc3ccc(Br)cc32)cc1OC (stereo not given) -3.35%
O=C(Nc1ccc(F)c(Cl)c1)C1CCCN(c2cnccn2)C1 (stereo not given) -6.57%
CC1CCN(S(=O)(=O)c2ccc3c(ccn3CCC(=O)NCc3ccc(N(C)C)cc3)c2)CC1 -0.713%

outcome, inactive:
CCOC(=O)c1cnc2c(ccc3ccccc32)c1Nc1ccc(Cl)cc1
COc1ccc(-c2cn3nc(N4CCCC(C(=O)NCc5ccccc5OC)C4)sc3n2)cc1 (stereo not given)
O=C(CCn1c(=O)c2sccc2n(Cc2cccc(F)c2)c1=O)NCc1ccc2c(c1)OCO2
COc1cccc2cc(C(=O)NCCc3c(C)[nH]c4ccc(F)cc34)c(=O)oc12
